{"source": "the supplement of paper PMC8728848", "binders": {"B1": {"name": "FliD (Clostridium difficile) (protein)", "chain": "MSSISPVRVTGLSGNFDMEGIIEASMIRDKEKVNKAKQDQQIVKWKQEIYRDIIKESKNLYDKYLNGDSPNSITNKKAYSATRITSSDESIIVAKGSAGAEKINYQFAVSQMAEPAKVTIKLNSSDPIVQQFPPNASGASSLNIGGVNIPISEQDTTSTIVSKINSLCADNDIRASYSEMTGELIISRKQTGSSSDIDLKVIGNDSLAGQIASDNGITFTTDASGTKSAVVYGKNLEADVTDDQGRVTHISKEQNSFKIDNIDYNVNSKGSAKLVSVTDTEEATKNMKAFVDDYNALMDKVYGLVTTKKSKDYPPLTDEQKDDMTTEEIEKWEKKAKEGILRNDDELRAFVEDIQSMFFGDADTIIALRKLGISEHENYNKKGQISFNADTFSKALIDDSDKVYKALAGYSSNYDDKGMFEKLKKIVFEYSGSSASKLTKKAGMENSSSASQNVYSKQIAEQERNISRLVEKMNDKEKRLYAKYSALESLLNKYSSQMNYFSQAQGN"}}, "molecular_target": "Neu5Gc(b2-6)Gal(b1-4)GlcNAc", "assay": "glycan array binding signal (z-score within array); higher = stronger binding", "details": "glycan notation: IUPAC condensed, linker removed", "method_in_brief": "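Glycan array binding is given as a within-array Z-score, which can be read as non-binding when negative. The arrays, 3228 of them, came from the Consortium for Functional Glycomics database and were retained only where the protein sequence was available. Z-scores were averaged across arrays of the same protein sequence at different concentrations or buffers and across linkers.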", "note": "The other results are listed elsewhere or left out."}
{"binder": "B1", "values": [{"measurement": "glycan array binding signal (z-score)", "result": -0.217}]}
